These results are taken from a collection of fitness landscapes (doi:10.1038/s41467-024-54723-y).

In all, about 18,000 sequences were measured (“TetR repression strength (sort-seq, GFP reporter)”: median about 0.23, highest 2% from about 0.68 on). The list shows a part of the results.

Sequence of UniProt P04483 (P04483 whole entry): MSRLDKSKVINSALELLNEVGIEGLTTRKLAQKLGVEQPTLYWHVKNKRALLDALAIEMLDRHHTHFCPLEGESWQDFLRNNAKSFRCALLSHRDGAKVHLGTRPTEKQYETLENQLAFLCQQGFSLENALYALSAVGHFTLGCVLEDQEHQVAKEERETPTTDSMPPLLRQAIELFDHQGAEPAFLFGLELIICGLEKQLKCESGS

The target of this assay is TetR (class B, Tn10) (UniProt P04483). As to the kind of experiment: TetR repression strength (sort-seq, GFP reporter) (relative to tetO2 = 1); higher = stronger repression. The conditions noted are these: E. coli. In a few lines:
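In LB with 50 µg/mL chloramphenicol, E. coli SIG10-MAX holding a low-copy library with eight randomized operator positions between a constitutive promoter and sfGFP, plus constitutive TetR, grew for 5 h at 37 °C. FACS then sorted 10^6 cells into 13 fluorescence bins for Illumina sequencing of each bin. Repression strength equals the top bin index plus one less the read-weighted mean bin, normalized to the unaltered operator. Values from three independent transformations were averaged when reads were ≥30 in every replicate and the CV was ≤0.5.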
As for TCCCGAGGAGTGTTCGAGA, the TetR repression strength came to 0.224.

On to TCCCTGGGAGTTAAGGAGA, for which the TetR repression strength was 0.144.

With TCCCCGTTAGTCATGGAGA, the TetR repression strength amounted to 0.166.

Regarding TCCCTTAGAGTCCTGGAGA, the TetR repression strength stood at 0.0777.

TCCCTCACAGTGATAGAGA yielded a TetR repression strength of 0.513.

Sequence TCCCTAACAGTTAGGGAGA had a TetR repression strength of 0.121.

In turn, TCCCATCCAGTATCAGAGA gave a TetR repression strength of 0.166.

Regarding TCCCTATAAGTCAGCGAGA, the TetR repression strength is 0.32.

Sequence TCCCTACGAGTTGTCGAGA registered a TetR repression strength of 0.314.

On to TCCCTCCAAGTTCTTGAGA, for which the TetR repression strength was 0.464.

TCCCAGGTAGTACTAGAGA: the TetR repression strength came to 0.299.

TCCCGTCGAGTGCAAGAGA returned a TetR repression strength of 0.433.

Regarding TCCCTGGTAGTTCAGGAGA, the TetR repression strength came out at 0.18.

In turn, TCCCGTCAAGTGTTTGAGA displayed a TetR repression strength of 0.394.

The sequence TCCCGGCTAGTAGTTGAGA gave a TetR repression strength of 0.295.

The sequence TCCCTCGCAGTGGGCGAGA showed a TetR repression strength of 0.256.

In the case of TCCCGTTCAGTTAGGGAGA, the TetR repression strength turned out to be 0.248.

TCCCTACTAGTCAGAGAGA: the TetR repression strength was found to be 0.179.

TCCCCTATAGTTAGCGAGA displayed a TetR repression strength of 0.122.

Turning to TCCCAGTGAGTGAGAGAGA, the TetR repression strength was 0.451.

As for TCCCCTGGAGTGTTTGAGA, the TetR repression strength is 0.298.

On to TCCCTGGGAGTGGATGAGA, for which the TetR repression strength turned out to be 0.162.

For the sequence TCCCGACGAGTGCACGAGA, the TetR repression strength amounted to 0.17.

TCCCGTGTAGTACTGGAGA had a TetR repression strength of 0.299.

TCCCTTAGAGTGGCGGAGA gave a TetR repression strength of 0.198.

In the case of TCCCGCTCAGTGCGTGAGA, the TetR repression strength amounted to 0.238.

Turning to TCCCGGCTAGTACGGGAGA, the TetR repression strength came to 0.244.

Turning to TCCCCTGGAGTCGAAGAGA, the TetR repression strength was 0.292.

As to TCCCACTGAGTAATTGAGA, the TetR repression strength was 0.415.

TCCCAGGTAGTGAAGGAGA had a TetR repression strength of 0.478.

As for TCCCTAGTAGTTGCGGAGA, the TetR repression strength was found to be 0.322.

Consider TCCCGAACAGTAGATGAGA, for which the TetR repression strength came out at 0.263.

In the case of TCCCTGTGAGTACCCGAGA, the TetR repression strength came out at 0.152.

As to TCCCCCTGAGTGGAAGAGA, the TetR repression strength is 0.123.

Take TCCCGTGAAGTGTGGGAGA: the TetR repression strength was 0.181.

Take TCCCGAGGAGTAACGGAGA: the TetR repression strength was determined as 0.192.

As for TCCCGCGTAGTTTGGGAGA, the TetR repression strength amounted to 0.405.

TCCCTTCTAGTAGGGGAGA gave a TetR repression strength of 0.424.

For TCCCTCTTAGTCGTTGAGA, the TetR repression strength stood at 0.269.

In turn, TCCCCGCTAGTCATGGAGA gave a TetR repression strength of 0.303.

TCCCCTGGAGTGTGGGAGA returned a TetR repression strength of 0.214.

Consider TCCCCAACAGTGTGCGAGA, for which the TetR repression strength amounted to 0.196.

Turning to TCCCGGCGAGTGGTGGAGA, the TetR repression strength was determined as 0.186.

As for TCCCGTATAGTGTCCGAGA, the TetR repression strength was determined as 0.0863.

TCCCGTTTAGTGCCGGAGA yielded a TetR repression strength of 0.0842.

In the case of TCCCTGACAGTCATGGAGA, the TetR repression strength was found to be 0.119.

TCCCACGAAGTAATAGAGA displayed a TetR repression strength of 0.379.

TCCCGGCAAGTCGAAGAGA came in with a TetR repression strength of 0.193.

TCCCACCAAGTTGACGAGA had a TetR repression strength of 0.306.

TCCCCCCGAGTGCATGAGA yielded a TetR repression strength of 0.565.

Turning to TCCCTACAAGTTAGTGAGA, the TetR repression strength is 0.14.

TCCCTACGAGTCGAGGAGA displayed a TetR repression strength of 0.394.

Take TCCCGCATAGTAGAAGAGA: the TetR repression strength is 0.119.

For TCCCTAGAAGTCTAGGAGA, the TetR repression strength was determined as 0.252.

The sequence TCCCGAGTAGTGCGAGAGA registered a TetR repression strength of 0.43.

Sequence TCCCATCGAGTTTGTGAGA came in with a TetR repression strength of 0.426.

In turn, TCCCCCCGAGTTAGGGAGA showed a TetR repression strength of 0.37.

For the sequence TCCCTCTAAGTTATCGAGA, the TetR repression strength was 0.311.

As to TCCCGTTTAGTAGCGGAGA, the TetR repression strength was 0.253.

Sequence TCCCTAACAGTCCACGAGA displayed a TetR repression strength of 0.205.

TCCCCTGGAGTAACGGAGA: the TetR repression strength was 0.0466.

Regarding TCCCGTGAAGTCGGGGAGA, the TetR repression strength stood at 0.215.

For TCCCACTTAGTGAGGGAGA, the TetR repression strength was 0.0283.

Regarding TCCCTGATAGTCTTGGAGA, the TetR repression strength amounted to 0.231.

In the case of TCCCCGACAGTGACTGAGA, the TetR repression strength worked out at 0.207.

TCCCGAATAGTTGGAGAGA registered a TetR repression strength of 0.556.

As for TCCCAAAAAGTTAACGAGA, the TetR repression strength came out at 0.249.

For the sequence TCCCGCCTAGTAGGTGAGA, the TetR repression strength was 0.253.

In turn, TCCCTACCAGTTAGGGAGA showed a TetR repression strength of 0.281.

For TCCCATTTAGTGTTTGAGA, the TetR repression strength worked out at 0.455.

TCCCGCGCAGTGGTGGAGA came in with a TetR repression strength of 0.19.

For TCCCTACCAGTCGGAGAGA, the TetR repression strength is 0.278.

TCCCGCACAGTTAACGAGA registered a TetR repression strength of 0.31.

As for TCCCCGGCAGTCCACGAGA, the TetR repression strength is 0.191.

For TCCCTGGGAGTCCACGAGA, the TetR repression strength worked out at 0.371.

Take TCCCAGATAGTTCAAGAGA: the TetR repression strength amounted to 0.169.

For the sequence TCCCTCGGAGTTGTGGAGA, the TetR repression strength was 0.2.

TCCCATCGAGTCGAAGAGA returned a TetR repression strength of 0.631.

As to TCCCGATGAGTGCGTGAGA, the TetR repression strength amounted to 0.241.

TCCCGTCTAGTGGCAGAGA: the TetR repression strength stood at 0.296.

The sequence TCCCCTTCAGTCATGGAGA displayed a TetR repression strength of 0.135.

Regarding TCCCGTGAAGTGCTCGAGA, the TetR repression strength came to 0.264.

Regarding TCCCCGTCAGTTAGCGAGA, the TetR repression strength came to 0.185.

Consider TCCCCACAAGTCCTCGAGA, for which the TetR repression strength is 0.562.

Turning to TCCCCAACAGTGTCTGAGA, the TetR repression strength was determined as 0.215.

TCCCCCCGAGTCCACGAGA showed a TetR repression strength of 0.403.

In turn, TCCCCCATAGTTGAAGAGA showed a TetR repression strength of 0.426.

The sequence TCCCACTGAGTGACGGAGA had a TetR repression strength of 0.23.

TCCCTGCGAGTATGTGAGA: the TetR repression strength was determined as 0.228.

The sequence TCCCTCACAGTGTGGGAGA showed a TetR repression strength of 1.22.

With TCCCTGCGAGTCGCTGAGA, the TetR repression strength is 0.141.

For the sequence TCCCCGTTAGTTTGAGAGA, the TetR repression strength is 0.219.

Take TCCCGGTTAGTATGAGAGA: the TetR repression strength stood at 0.179.

Regarding TCCCGTGCAGTGTTCGAGA, the TetR repression strength was found to be 0.213.

TCCCTTTAAGTAATTGAGA showed a TetR repression strength of 0.521.

Consider TCCCTCATAGTGAAAGAGA, for which the TetR repression strength was found to be 0.138.

TCCCGACGAGTCCGTGAGA gave a TetR repression strength of 0.433.

With TCCCGTAAAGTCAAGGAGA, the TetR repression strength was determined as 0.506.

TCCCTGTGAGTCGTTGAGA displayed a TetR repression strength of 0.443.

Sequence TCCCAGGTAGTTAAGGAGA showed a TetR repression strength of 0.191.

Take TCCCTATCAGTACCAGAGA: the TetR repression strength is 0.514.

Take TCCCGTGCAGTGCTAGAGA: the TetR repression strength was determined as 0.38.

Take TCCCTTTAAGTGTTAGAGA: the TetR repression strength amounted to 0.415.

The sequence TCCCGCGCAGTACATGAGA returned a TetR repression strength of 0.0389.

Regarding TCCCGGACAGTTATAGAGA, the TetR repression strength is 0.134.

For the sequence TCCCATCAAGTGTCAGAGA, the TetR repression strength came to 0.233.

Regarding TCCCATTGAGTCATTGAGA, the TetR repression strength came to 0.271.

In turn, TCCCCTCGAGTCATGGAGA came in with a TetR repression strength of 0.279.

Regarding TCCCACAGAGTGGTAGAGA, the TetR repression strength worked out at 0.438.

Consider TCCCAACCAGTAGGAGAGA, for which the TetR repression strength was 0.0629.

The sequence TCCCTTCCAGTCATTGAGA gave a TetR repression strength of 0.225.

In the case of TCCCGTTTAGTCGGGGAGA, the TetR repression strength stood at 0.228.

For TCCCTAAGAGTACTGGAGA, the TetR repression strength came to 0.401.

The sequence TCCCGTAGAGTCTTTGAGA displayed a TetR repression strength of 0.229.

The sequence TCCCAAGAAGTCGATGAGA yielded a TetR repression strength of 0.

Consider TCCCCTCCAGTTCTGGAGA, for which the TetR repression strength was 0.342.

On to TCCCCTTCAGTTTCCGAGA, for which the TetR repression strength worked out at 0.367.

As to TCCCGCGTAGTTTAGGAGA, the TetR repression strength came to 0.195.

As to TCCCTGTAAGTGCGGGAGA, the TetR repression strength came to 0.17.

TCCCATTTAGTACGGGAGA gave a TetR repression strength of 0.296.

For TCCCAGAGAGTCCTCGAGA, the TetR repression strength was 0.278.

TCCCAAAGAGTGGGAGAGA displayed a TetR repression strength of 0.23.

For TCCCTGAGAGTGGAAGAGA, the TetR repression strength amounted to 0.109.

In turn, TCCCGGCGAGTATCCGAGA gave a TetR repression strength of 0.239.

Consider TCCCAGGTAGTGCATGAGA, for which the TetR repression strength stood at 0.214.

Consider TCCCCACAAGTGATAGAGA, for which the TetR repression strength came to 0.652.

Turning to TCCCGTGTAGTGTCGGAGA, the TetR repression strength amounted to 0.26.

In turn, TCCCGACAAGTTCGGGAGA returned a TetR repression strength of 0.0995.

Take TCCCTGCAAGTATGAGAGA: the TetR repression strength was 0.013.

For TCCCGCCTAGTAGCAGAGA, the TetR repression strength was 0.253.
